Measured values reported in the supplement of paper PMC11741623.
The list shows a part of the results. Interaction screen of human proteins with wild-type SARS-CoV-2 proteins by split-DHFR complementation in yeast, 1 µg/mL methotrexate. Value = fitness of the pair (three or more lineages) minus that of the viral protein without a human partner, on a scale set by negative (0) and fused positive (1) controls, mean of up to three cultures; higher = more likely to interact. Active = false discovery rate below 0.05 (one-sided t-test) in at least one culture. Nearly all pairs are not hits, and differences among them are mostly noise (correlation between cultures about 0.3); most hits were seen in one culture only. Human sequences are the Swiss-Prot entries looked up by gene name; the clone may be another isoform. NSP2 values were corrected by the authors for a growth advantage. Listed are human proteins with a hit and a random twelfth of the others.

How the values were obtained:
Test in all cases: yeast fitness gain over the viral ORF with no human partner (scaled fitness); higher = more likely to interact
SARS-CoV-2 E = molecular target: SARS-CoV-2 E
Procedure: (§1)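 Split mouse DHFR complementation in pooled diploid yeast: human ORFeome clones carry one fragment and viral ORFs the other; barcoded lineages compete in 1 µg/mL methotrexate and fitness is read by barcode sequencing in up to three cultures.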

SARS-CoV-2 M = molecular target: SARS-CoV-2 M
Procedure: as §1

SARS-CoV-2 N = molecular target: SARS-CoV-2 N
Procedure: as §1

SARS-CoV-2 NSP1 = molecular target: SARS-CoV-2 NSP1
Procedure: as §1

SARS-CoV-2 NSP10 = molecular target: SARS-CoV-2 NSP10
Procedure: as §1

SARS-CoV-2 NSP12 = molecular target: SARS-CoV-2 NSP12
Procedure: as §1

SARS-CoV-2 NSP13 = molecular target: SARS-CoV-2 NSP13
Procedure: as §1

SARS-CoV-2 NSP14 = molecular target: SARS-CoV-2 NSP14
Procedure: as §1

SARS-CoV-2 NSP15 = molecular target: SARS-CoV-2 NSP15
Procedure: as §1

SARS-CoV-2 NSP16 = molecular target: SARS-CoV-2 NSP16
Procedure: as §1

SARS-CoV-2 NSP2 = molecular target: SARS-CoV-2 NSP2
Procedure: as §1

SARS-CoV-2 NSP4 = molecular target: SARS-CoV-2 NSP4
Procedure: as §1

SARS-CoV-2 NSP5 = molecular target: SARS-CoV-2 NSP5
Procedure: as §1

SARS-CoV-2 NSP6 = molecular target: SARS-CoV-2 NSP6
Procedure: as §1

SARS-CoV-2 NSP7 = molecular target: SARS-CoV-2 NSP7
Procedure: as §1

SARS-CoV-2 NSP8 = molecular target: SARS-CoV-2 NSP8
Procedure: as §1

SARS-CoV-2 NSP9 = molecular target: SARS-CoV-2 NSP9
Procedure: as §1

SARS-CoV-2 ORF10 = molecular target: SARS-CoV-2 ORF10
Procedure: as §1

SARS-CoV-2 ORF3A = molecular target: SARS-CoV-2 ORF3A
Procedure: as §1

SARS-CoV-2 ORF3B = molecular target: SARS-CoV-2 ORF3B
Procedure: as §1

SARS-CoV-2 ORF6 = molecular target: SARS-CoV-2 ORF6
Procedure: as §1

SARS-CoV-2 ORF7A = molecular target: SARS-CoV-2 ORF7A
Procedure: as §1

SARS-CoV-2 ORF7B = molecular target: SARS-CoV-2 ORF7B
Procedure: as §1

SARS-CoV-2 ORF8 = molecular target: SARS-CoV-2 ORF8
Procedure: as §1

SARS-CoV-2 ORF9B = molecular target: SARS-CoV-2 ORF9B
Procedure: as §1

[1] = molecular target: SARS-CoV-2 ORF9Bwu (the 73-codon ORF)
Procedure: as §1

SARS-CoV-2 S = molecular target: SARS-CoV-2 S
Procedure: as §1

Measured: yeast fitness gain

B1: TAS2R8, Q9NYW2 (protein)
chain: MFSPADNIFIILITGEFILGILGNGYIALVNWIDWIKKKKISTVDYILTNLVIARICLISVMVVNGIVIVLNPDVYTKNKQQIVIFTFWTFANYLNMWITTCLNVFYFLKIASSSHPLFLWLKWKIDMVVHWILLGCFAISLLVSLIAAIVLSCDYRFHAIAKHKRNITEMFHVSKIPYFEPLTLFNLFAIVPFIVSLISFFLLVRSLWRHTKQIKLYATGSRDPSTEVHVRAIKTMTSFIFFFFLYYISSILMTFSYLMTKYKLAVEFGEIAAILYPLGHSLILIVLNNKLRQTFVRMLTCRKIACMI
inactive: SARS-CoV-2 E -0.47 | SARS-CoV-2 M 0.0211 | SARS-CoV-2 N -0.0764 | SARS-CoV-2 NSP1 = 0.0923 | SARS-CoV-2 NSP10 = 0.0119 | SARS-CoV-2 NSP12 = -0.0308 | SARS-CoV-2 NSP13 = 0.0319 | SARS-CoV-2 NSP14 = 0.0954 | SARS-CoV-2 NSP15 = -0.0625 | SARS-CoV-2 NSP16 = -0.117 | SARS-CoV-2 NSP2 = -0.14 | SARS-CoV-2 NSP4 = 0.0958 | SARS-CoV-2 NSP5 = 0.0108 | SARS-CoV-2 NSP6 = -0.0746 | SARS-CoV-2 NSP7 = -0.00947 | SARS-CoV-2 NSP8 = 0.0276 | SARS-CoV-2 NSP9 = 0.00185 | SARS-CoV-2 ORF10 = 0.0472 | SARS-CoV-2 ORF3A 0.0587 | SARS-CoV-2 ORF3B 0.0119 | SARS-CoV-2 ORF6 = 0.0277 | SARS-CoV-2 ORF7A 0.0693 | SARS-CoV-2 ORF7B -0.0423 | SARS-CoV-2 ORF8 = 0.06 | SARS-CoV-2 ORF9B 0.0231 | [1] 0.122 | SARS-CoV-2 S 0.0386

B2: SCGB1D1, O95968 (protein)
chain: MRLSVCLLLLTLALCCYRANAVVCQALGSEITGFLLAGKPVFKFQLAKFKAPLEAVAAKMEVKKCVDTMAYEKRVLITKTLGKIAEKCDR
inactive: SARS-CoV-2 E -0.122 | SARS-CoV-2 M 0.0543 | SARS-CoV-2 N 0.0934 | SARS-CoV-2 NSP1 = 0.0477 | SARS-CoV-2 NSP10 = -0.102 | SARS-CoV-2 NSP12 = 0.0407 | SARS-CoV-2 NSP13 = 0.0137 | SARS-CoV-2 NSP14 = 0.0375 | SARS-CoV-2 NSP15 = -0.0725 | SARS-CoV-2 NSP16 = 0.0505 | SARS-CoV-2 NSP2 = -0.125 | SARS-CoV-2 NSP4 = -0.0552 | SARS-CoV-2 NSP5 = 0.0177 | SARS-CoV-2 NSP6 = 0.0496 | SARS-CoV-2 NSP7 = 0.0328 | SARS-CoV-2 NSP8 = 0.0884 | SARS-CoV-2 NSP9 = 0.0522 | SARS-CoV-2 ORF10 = 0.0758 | SARS-CoV-2 ORF3A 0.0469 | SARS-CoV-2 ORF3B 0.031 | SARS-CoV-2 ORF6 = 0.054 | SARS-CoV-2 ORF7A -0.0989 | SARS-CoV-2 ORF7B -0.0219 | SARS-CoV-2 ORF8 = 7.3e-06 | SARS-CoV-2 ORF9B 0.0434 | [1] 0.016 | SARS-CoV-2 S 0.0208

B3: SNAPC2, Q13487 (protein)
chain: MKPPPRRRAAPARYLGEVTGPATWSAREKRQLVRLLQARQGQPEPDATELARELRGRSEAEIRVFLQQLKGRVAREAIQKVHPGGLQGPRRREAQPPAPIEVWTDLAEKITGPLEEALAVAFSQVLTIAATEPVTLLHSKPPKPTQARGKPLLLSAPGGQEDPAPEIPSSAPAAPSSAPRTPDPAPEKPSESSAGPSTEEDFAVDFEKIYKYLSSVSRSGRSPELSAAESAVVLDLLMSLPEELPLLPCTALVEHMTETYLRLTAPQPIPAGGSLGPAAEGDGAGSKAPEETPPATEKAEHSELKSPWQAAGICPLNPFLVPLELLGRAATPAR
inactive: SARS-CoV-2 E -0.0943 | SARS-CoV-2 M -0.0491 | SARS-CoV-2 N 0.0114 | SARS-CoV-2 NSP1 = 0.0473 | SARS-CoV-2 NSP10 = 0.00636 | SARS-CoV-2 NSP12 = 0.00759 | SARS-CoV-2 NSP13 = 0.04 | SARS-CoV-2 NSP14 = -0.0048 | SARS-CoV-2 NSP15 = -0.00891 | SARS-CoV-2 NSP16 = -0.0493 | SARS-CoV-2 NSP2 = -0.141 | SARS-CoV-2 NSP4 = 0.00257 | SARS-CoV-2 NSP5 = 0.0434 | SARS-CoV-2 NSP6 = 0.00984 | SARS-CoV-2 NSP7 = 0.0497 | SARS-CoV-2 NSP8 = 0.0234 | SARS-CoV-2 NSP9 = 0.0147 | SARS-CoV-2 ORF10 = -0.00502 | SARS-CoV-2 ORF3A -0.0627 | SARS-CoV-2 ORF3B 0.00994 | SARS-CoV-2 ORF6 = 0.0156 | SARS-CoV-2 ORF7A 0.0435 | SARS-CoV-2 ORF7B -0.0596 | SARS-CoV-2 ORF8 = 0.0159 | SARS-CoV-2 ORF9B -0.0213 | [1] -0.0138 | SARS-CoV-2 S 0.0717

B4: TMEM129, A0AVI4 (protein)
chain: MDSPEVTFTLAYLVFAVCFVFTPNEFHAAGLTVQNLLSGWLGSEDAAFVPFHLRRTAATLLCHSLLPLGYYVGMCLAASEKRLHALSQAPEAWRLFLLLAVTLPSIACILIYYWSRDRWACHPLARTLALYALPQSGWQAVASSVNTEFRRIDKFATGAPGARVIVTDTWVMKVTTYRVHVAQQQDVHLTVTESRQHELSPDSNLPVQLLTIRVASTNPAVQAFDIWLNSTEYGELCEKLRAPIRRAAHVVIHQSLGDLFLETFASLVEVNPAYSVPSSQELEACIGCMQTRASVKLVKTCQEAATGECQQCYCRPMWCLTCMGKWFASRQDPLRPDTWLASRVPCPTCRARFCILDVCTVR
inactive: SARS-CoV-2 E -0.0779 | SARS-CoV-2 M -0.131 | SARS-CoV-2 N -0.059 | SARS-CoV-2 NSP1 = 0.0231 | SARS-CoV-2 NSP10 = 0.117 | SARS-CoV-2 NSP12 = 0.109 | SARS-CoV-2 NSP13 = 0.112 | SARS-CoV-2 NSP2 = -0.0732 | SARS-CoV-2 NSP4 = -0.00658 | SARS-CoV-2 NSP5 = -0.188 | SARS-CoV-2 NSP7 = 0.0133 | SARS-CoV-2 NSP8 = 0.116 | SARS-CoV-2 ORF10 = 0.041 | SARS-CoV-2 ORF3A 0.0633 | SARS-CoV-2 ORF3B -0.076 | SARS-CoV-2 ORF6 = 0.0483 | SARS-CoV-2 ORF7A -0.00201 | SARS-CoV-2 ORF7B 0.00766 | SARS-CoV-2 ORF8 = -0.0174 | SARS-CoV-2 ORF9B -0.0523 | [1] 0.00999 | SARS-CoV-2 S 0.0291
